Test results from the supplement of paper PMC3334620.
In all, about 33,000 sequences were measured (“E-score (-0.5 to 0.5)”: median about -0.056, highest 2% from about 0.38 on). This is one part of the list.

Each sequence was assayed against Stb4 (UniProt P50104) (assay: PBM E-score (8-mer binding enrichment) (E-score (-0.5 to 0.5)); higher = stronger / more preferred TF binding; most listed sequences are background and not binding sites). Conditions: protein concentration: 200 nM; construct: GST-DNA-binding domain.
In short: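 The E-score, a modified Wilcoxon-Mann-Whitney statistic, was computed by the Universal PBM Analysis Suite for every ungapped eight-base word pooled with its reverse complement. Scans behind it were normalised with masliner after bound GST-tagged yeast transcription factors were detected with fluorescent anti-GST. The proteins, at about 100-200 nM, had been applied to universal all-10-mer Agilent arrays made double-stranded by primer extension.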

Sequence | PBM E-score
ATTCCAAC | -0.0549
CGTGCGTA | 0.0536
GCCAACCA | 0.00327
AGATTAGG | -0.115
AGCCGGAA | 0.395
AAACATTC | -0.143
GGCGGATA | 0.374
CGACGACC | 0.17
AAGGTTAA | -0.0619
CGCCTTCC | 0.183
ACGTAGCA | -0.158
AGCCTTTG | -0.254
AACGGAAT | 0.315
ACAGCCGA | 0.383
CGAGCACA | 0.175
GAATGTAA | 0.237
CGCGCTAA | -0.0373
GGCTGAGA | 0.0569
CGTCCTCA | -0.158
AAAAACAA | 0.178
GACAACTC | 0.119
CCATGGTC | -0.0447
ACCCCCTC | -0.235
ATGCAGAG | -0.146
ATGGCGAA | 0.00408

Sequence | PBM E-score
CCCCCGGC | 0.172
GATCCCGA | 0.417
ATATGGAG | -0.075
GTAAGGCA | -0.226
AGGTCCCG | 0.325
GTCCATCA | 0.00371
CACGGCTG | 0.131
GTACCGAA | 0.358
ACCGTACC | 0.205
ACGAATTC | -0.192
CGCACCAA | -0.0332
GGGATCGA | -0.0135
CTGGGAGA | -0.108
CAGCCCCC | -0.209
AGCTGGGG | -0.00585
ATCAGCGC | 0.0346
GCCTCCGA | 0.278
AGACACTG | -0.164
CCGCTCAA | 0.0048
CTGCATCA | -0.271
CCTACTTC | -0.119
AAAGGGGT | -0.27
AACAACGG | 0.106
ATATACAC | -0.126
AGTCAATG | -0.246

Sequence | PBM E-score
CTAAATAG | -0.203
GATCGGGA | 0.359
CCTGTGTC | -0.0491
AGGGGAAG | -0.173
CGTAGTAC | -0.0659
ATAGTTGC | -0.0884
CAGGTGGC | -0.216
TACAGAAA | -0.00236
CGTAGTCA | -0.208
CGACCTCC | 0.249
ACTTGAAT | 0.0633
ACCAGCCG | 0.256
GAGGATAC | -0.116
CCAGTTCA | -0.0458
AATCATTA | -0.324
CCTCAGTA | -0.0836
CGGCACCC | 0.216
CCGGTCAA | 0.158
CATCGCGA | -0.135
CAAGACTC | -0.117
AGCTCAAA | -0.0768
GGAGGAAC | -0.0445
CGGTCAAA | 0.106
ATAAGGCG | -0.0975
AGGCTTGA | -0.241

Sequence | PBM E-score
ATCTCAAG | -0.175
CGACGTGA | 0.061
CAGCCCTC | 0.0339
AGGCGGTG | -0.178
ACTAGCCG | 0.338
CCTCTGCA | -0.118
CTATGGCA | -0.225
TCATGCCA | -0.205
CCTACGAC | -0.165
CGCTGAGC | -0.209
TCGTAAAA | 0.0883
CCAACCAA | -0.12
ACACGGCC | 0.0659
CCGCGGGA | 0.32
ACCGTAAG | -0.0734
ACTAACTA | 0.0522
ATGGGCTA | -0.084
CCGGAGGA | 0.308
AAGTCTCG | 0.218
CAAAAGTA | -0.0702
GGTTTTTA | -0.0968
AGTTGGGC | -0.0616
GACCGAAA | 0.255
CTCTCCAA | -0.0833
CCGTTGAG | 0.0563

Sequence | PBM E-score
ATGGCACA | -0.023
TCTTTTAA | -0.0966
GTTGTACA | 0.0248
GGCCATGA | 0.0682
GCTTATGA | 0.027
GCCGTTGA | -0.036
ATAGCTAC | 0.0314
CCCGTTAA | 0.218
ACAATAAA | -0.035
ACGACGCT | -0.109
GCTCGAGA | -0.171
AACATTGG | -0.0812
AGGTGTTA | -0.165
AGACATCA | -0.0771
ACTGTCAC | -0.159
CAGGGTTA | -0.321
CGACGTCC | 0.131
TCTCTGCA | -0.153
AAGTTGTA | -0.0674
CCACATCG | 0.0865
CGGGGATA | 0.318
ACGCCACC | -0.163
ATAATTTG | 0.0149
AAACAACA | -0.169
CGATTATC | 0.15

Sequence | PBM E-score
TCTGAAGA | -0.135
AGATCTCA | -0.137
GCTCGATA | -0.0522
CGGGGTCC | 0.0929
GAGAACGA | -0.14
AAGGGTCG | 0.0413
AGGCATTA | -0.0811
CATCGACG | -0.136
GGCTGTAA | 0.0828
GTAGTGAC | 0.0365
CGCATCCA | -0.126
ATGGAGAA | 0.0294
AGAACGGA | 0.134
AGTCCGAC | 0.11
GGAAATAC | 0.285
AGCGTTAC | -0.129
CCTCGACA | -0.28
CTGTCAGA | -0.0204
CTACAGTA | -0.139
CTGCAATC | 0.111
ATCCGTAG | 0.312
TAAGATGA | -0.279
GACAATAC | -0.0821
ACTCAAAA | -0.0899
CACCTCGA | -0.0678

Sequence | PBM E-score
AGTCGTTC | -0.0994
AGATGGAT | -0.218
ATTAGAGG | 6e-05
ATTCTTAC | 0.0775
CCCAGGTC | -0.297
CCTGCGCC | -0.128
TCACTGAA | 0.025
AAAACTCG | 0.195
CATCTCTC | 0.112
CCCCAGAC | -0.207
ACGCAACG | -0.0199
ATATAGAC | -0.0901
CACCGTAA | -0.116
CGTAGCGA | 0.112
ACTCGAAT | -0.165
TCAGCGAA | -0.218
CAGCTTCA | -0.0402
ATTCTCCG | 0.264
AAACACGA | -0.0874
AGATTATA | -0.0494
CACACGAG | -0.252
ATTTTGTA | -0.0843
CCGCAAGG | -0.0145
ATTGCGGA | 0.207
GAGTCCAC | -0.196

Sequence | PBM E-score
CTAACGCA | -0.0661
AAAACTGA | -0.0831
GATGGCAC | 0.0406
AGTCTGAC | -0.232
GGTGGGTA | 0.0221
CGCGACCA | 0.0077
CACGATTA | -0.151
ATCCTTCG | 0.205
CGAGAAAA | 0.109
CTAATCGC | 0.00665
AGTAATAT | 0.109
CTCAGACC | -0.116
GTGAGGTA | -0.103
CAGCCACC | 0.0352
CAGGGCTC | -0.239
CACAAAAG | 0.0681
AAGACGCT | -0.192
TATGAACA | -0.173
GCGAGGCA | 0.0697
AAATGGAA | 0.0265
ATTTAATA | 0.229
GCGCTACC | 0.058
AAGAAGCA | -0.0165
TTATCAAA | -0.0823
CATAAAGA | -0.238

Sequence | PBM E-score
CTACGAAA | -0.134
AGCACCAC | -0.118
AATACCGT | 0.0892
CTCTGACA | -0.122
TCAGTACA | -0.116
GCCGTGCC | 0.158
ATGTTCCC | 0.153
AACTGCAA | -0.054
CACCGTGC | -0.0741
CCCGGACC | 0.26
CCGCGGAA | 0.352
CTTGAAGC | -0.104
GAACTCAC | -0.0382
ATAGGCGC | -0.0788
CCCCGTCA | 0.0967
ATTCCAGC | -0.0999
ACGTATAA | -0.145
ACCCCTAG | -0.369
CGGATGCA | 0.361
GAATTTGC | 0.131
GGTGAGAC | -0.00138
AGTCTTCC | 0.103
AGGAAAGC | -0.0848
ACTAAAGT | -0.161
CGACAATC | 0.159

Sequence | PBM E-score
AGTGATCA | -0.172
AGACGTAT | -0.131
GGCGCACC | 0.024
CCAAACCA | -0.162
AACTGCAG | -0.241
GTTATTAA | 0.141
GACACTTA | 0.00204
GCTGCAGA | -0.0718
AAACACTT | -0.114
ATGTCAAA | -0.078
AACGCGAG | -0.0588
TAGGATCA | -0.0704
ACACGCAA | -0.238
GCAACCCA | -0.1
GCCCCGGA | 0.385
ACTGACCC | 0.192
CGGGTCTA | 0.245
AGTAGTGG | -0.11
AATTAGAA | -0.0287
ACATGTCA | -0.226
AGGCGGGC | -0.0152
ACCCGTAC | 0.198
ATAAAGGC | 0.0147
AGAACTCA | -0.0669
CGGTCTCC | 0.104

Sequence | PBM E-score
ACGATACG | -0.314
CGAAGGGA | -0.0506
GGCAACGA | 0.0169
GAATCGGA | 0.38
CTAGTCCA | -0.153
CCCGACCG | 0.327
AGTTTGAT | 0.0051
CAAAGTGA | -0.0524
CAACCCCA | -0.0266
CAGACACC | -0.0503
AAATGGCA | -0.138
GTAGTATA | -0.0794
AAGGCTTA | -0.123
CATGCTCG | 0.0207
ATGGGACG | -0.184
CAAAGGGC | -0.176
CTTTTAAA | 0.0635
ATTACCTG | -0.0886
CCGCAGCA | 0.128
AAGGCCGT | -0.0669
ACCGCATG | -0.21
AGGCGCCG | 0.0647
AGTGTTAC | 0.0516
ACGCTTGA | -0.308
AACGTAAT | -0.262

Sequence | PBM E-score
AGGCTCGC | -0.00633
CGAAGGAA | 0.0508
ATAAGGGA | -0.159
ATCGGAGC | 0.282
GAGGGACA | -0.206
ATGTTAAT | 0.0362
CCAGCCGC | 0.181
AGATTAAA | -0.0781
CCATTGAC | -0.243
ATTCTAAA | -0.0011
TCCGTTCA | 0.191
AGAGTACG | -0.0851
CATAGGAA | -0.13
GGCTATGA | 0.111
TATTTGGA | -0.048
GAGGACCA | -0.0556
CCACGAGA | -0.144
AGTCCTCC | -0.0813
CCCAGACA | -0.121
GCACTGAC | -0.0863
CCCGATGC | 0.349
GCCCTGGA | -0.0528
ACACAAAC | 0.0313
ACACCAGT | -0.269
AGAACCCA | -0.243

Sequence | PBM E-score
CTAGAGTA | -0.0966
AATTCGTC | -0.0958
ATCAATAG | -0.11
CTCCCTCA | -0.23
AACCCTTC | 0.00281
ATAGGACA | -0.399
CCACGTTA | -0.168
AAATGGGG | -0.344
ACTATCCA | 0.0303
CGCGCAAC | -0.0443
ATGGACCA | -0.138
GTGTGTTA | -0.0591
ATCCGTGC | 0.285
AATCTAAT | -0.0701
CGGCGGAA | 0.408
AGGTTAGA | -0.0231
AGTTCACA | -0.153
TCAATCAA | -0.11
ATCCCCCC | -0.15
CGTATATC | -0.105
ACCGCAAC | 0.142
CGTGCCTA | -0.149
CTCAGGCC | -0.198
CTTTTCCA | -0.00677
ACTCCGCT | -0.0692

Sequence | PBM E-score
AGTACTCG | 0.0502
CGCCAGGC | 0.0543
AAGTGAAG | -0.249
AAACGGCT | 0.108
ATGGAGTG | -0.277
ACTATCAT | 0.0307
TAGGGGAA | -0.224
ACAGTCCC | 0.0467
GCATGCAC | -0.242
CCGAATCA | 0.361
GCCATTAA | -0.0602
GACTCCCA | -0.0601
GCGTTATA | -0.14
GACACGAA | -0.124
GGGTCGTA | 0.068
CATGGGTC | -0.162
GAATCAAC | 0.0993
AGCTCTAG | -0.12
TACGTGCA | -0.0413
